Reference: PubChem BioAssay AID504332 (National Center for Advancing Translational Sciences (NCATS), 2011)
Hit rate of the full screen: of about 350,000 compounds, about 31,000 (8.9%) were called active. Inconclusive results, whose numbers are uncertain, are shown with a selection of clear calls. Calls come from the whole dose curve; as a rule, active = well fitted inhibition curve with a large enough effect; inconclusive = small, poorly fitted or top-dose-only effect; inactive = no such curve, though single readings can be large or run the other way. Where the call is inconclusive, the potency comes from a doubtful curve fit.

target: Histone-lysine N-methyltransferase EHMT2 (Homo sapiens) (UniProt Q96KQ7); assay: qHTS Assay for Inhibitors of Histone Lysine Methyltransferase G9a; conditions: G9a H3K9 monomethylation, AlphaScreen, 2 h; activity, negative = inhibition: at 59 µM (top of the series) unless noted; note: nearly all actives have a fitted effect of over 75% in size
Sequence of UniProt Q96KQ7 (Q96KQ7 whole entry, looked up): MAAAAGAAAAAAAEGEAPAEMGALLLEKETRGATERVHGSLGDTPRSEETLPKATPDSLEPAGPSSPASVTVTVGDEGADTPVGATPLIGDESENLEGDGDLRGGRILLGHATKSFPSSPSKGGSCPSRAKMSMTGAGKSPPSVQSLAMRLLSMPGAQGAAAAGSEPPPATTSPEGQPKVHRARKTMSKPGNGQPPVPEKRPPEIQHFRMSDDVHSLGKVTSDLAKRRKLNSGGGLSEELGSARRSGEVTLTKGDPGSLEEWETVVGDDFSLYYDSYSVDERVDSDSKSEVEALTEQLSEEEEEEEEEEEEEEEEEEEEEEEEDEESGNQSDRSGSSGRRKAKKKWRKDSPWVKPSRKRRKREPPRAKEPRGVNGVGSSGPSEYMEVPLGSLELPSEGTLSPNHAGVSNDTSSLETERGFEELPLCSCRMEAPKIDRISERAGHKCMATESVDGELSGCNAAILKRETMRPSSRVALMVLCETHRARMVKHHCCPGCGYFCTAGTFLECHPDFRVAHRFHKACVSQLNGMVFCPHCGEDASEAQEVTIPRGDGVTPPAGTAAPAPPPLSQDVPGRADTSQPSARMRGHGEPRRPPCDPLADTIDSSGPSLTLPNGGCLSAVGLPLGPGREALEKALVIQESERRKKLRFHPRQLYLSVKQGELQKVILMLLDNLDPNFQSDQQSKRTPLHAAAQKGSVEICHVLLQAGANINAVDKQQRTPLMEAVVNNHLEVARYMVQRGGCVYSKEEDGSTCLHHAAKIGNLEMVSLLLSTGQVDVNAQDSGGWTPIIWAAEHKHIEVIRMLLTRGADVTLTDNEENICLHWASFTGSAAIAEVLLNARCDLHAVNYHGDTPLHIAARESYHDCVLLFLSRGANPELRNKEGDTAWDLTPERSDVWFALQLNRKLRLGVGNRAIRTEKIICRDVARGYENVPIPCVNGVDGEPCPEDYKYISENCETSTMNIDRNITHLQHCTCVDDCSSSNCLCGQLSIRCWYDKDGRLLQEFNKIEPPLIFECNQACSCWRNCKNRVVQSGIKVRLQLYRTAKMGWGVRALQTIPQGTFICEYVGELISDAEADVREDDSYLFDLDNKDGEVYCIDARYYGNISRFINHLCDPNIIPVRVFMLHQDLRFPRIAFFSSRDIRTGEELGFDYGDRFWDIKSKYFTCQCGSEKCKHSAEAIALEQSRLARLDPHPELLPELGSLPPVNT
How it was run: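 Methyltransferase reactions run at room temperature for 2 h (20 nM enzyme, 500 nM biotin-H3K9 peptide, 20 uM SAM) after a 15 min compound preincubation; product detected by AlphaScreen beads and anti-H3K9me1 antibody.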
% is set by controls: 0 for no effect and ±100 for the full control effect; potency is the fitted concentration of half-maximal effect; tags give direction and shape of the fitted curve.

SMILES	activity, negative = inhibition	Potency
N#Cc1ccc(-c2ccc(OCC(O)Cn3nnc4ccccc43)cc2)cc1 (stereo not drawn)	inactive: 22.3%	
CCc1nnc2c(NCc3cccc(OC)c3)nc3ccccc3n12	inactive: 0.237%	
CC1CCCCC1NC(=O)C1CCN(S(=O)(=O)c2ccc3c(c2)CCC(=O)N3)CC1 (stereo not drawn)		inconclusive: 70.8 µM [inhibitor, single point]
O=C(c1cccc2ccccc12)N1CCN(c2ccccc2F)CC1		active: 2.82 µM
Cc1ccc(C)c(-n2c(SCC(=O)N3CCC(C(=O)O)CC3)nnc2-c2cccc(Cl)c2)c1		inconclusive: 39.8 µM [inhibitor, partial curve, poor fit]
CC(NCC(=O)Nc1ccccc1C(=O)NC1CC1)c1ccc(S(N)(=O)=O)cc1 (stereo not drawn)	inconclusive: -76% [inhibitor] [at 2.33 µM]	
N#Cc1c(NC(=O)C(=O)NCCCN2CCOCC2)sc2c1CCC2		inconclusive: 70.8 µM [inhibitor, single point]
Cc1cc(NC(=O)CSc2c(C)[nH]c3ccccc23)no1		active: 50.1 µM
C/C(Cl)=C\Cn1c(NCCc2ccccc2)nc2c1c(=O)n(C)c(=O)n2C		inconclusive: 89.1 µM [inhibitor, single point]
Cc1nonc1N1CCN(Cc2cn[nH]c2-c2ccc(F)cc2F)CC1		inconclusive: 3.98 µM [inhibitor, partial curve]
CCS(=O)(=O)N1CCN(c2cc3c(cc2[N+](=O)[O-])n(C)c(=O)n3C)CC1		inconclusive: 7.94 µM [inhibitor, full curve, poor fit]
COc1ccccc1Nc1nc(N)nc(CN2CCN(c3ccccc3F)CC2)n1		inconclusive: 3.55 µM [inhibitor, single point]
COc1cccc(C(CNc2ccc(S(=O)(=O)N3CCN(C)CC3)cc2[N+](=O)[O-])N(C)C)c1 (stereo not drawn)		active: 50.1 µM
Cc1nc(C(=O)N(C)C)nn1-c1cc(Cl)ccc1Cl	inactive: 11.7%	
CN(C)c1ccc(CN(Cc2ccco2)C(=O)c2ccco2)cc1		active: 44.7 µM
O=C(O)c1ccc(Cl)c(S(=O)(=O)N(Cc2ccccc2)c2ccccc2Cl)c1		inconclusive: 0.631 µM [inhibitor, full curve, poor fit]
COc1cc2ncnc(NCc3ccccc3Cl)c2cc1OC	inconclusive: -56.3% [inhibitor]	
O=C(O)CSc1ccc2nnc(-c3cccnc3)n2n1		inconclusive: 50.1 µM [inhibitor, partial curve]
CC(=O)OCCOc1nc(NC(C)C)nc(NC(C)C)n1		inconclusive: 89.1 µM [inhibitor, single point]
O=C(O)CCN1C(=O)CC(N2C(=O)/C(=C/c3ccc(Cl)cc3)SC2=S)C1=O (stereo not drawn)		inconclusive: 35.5 µM [inhibitor, single point]
Cc1cn(C)c(CC(=O)N2CCN(c3ccc(F)cc3)CC2)c1C(=O)O	inactive: -3.05%	
Cn1c(CCNC(=O)c2ccco2)nc2cc([N+](=O)[O-])ccc21		inconclusive: 89.1 µM [inhibitor, single point]
COc1ccc(C(=O)CCC(=O)N2CCN(c3ccc(C)cc3)C(C)C2)cc1 (stereo not drawn)		inconclusive: 79.4 µM [inhibitor, single point]

SMILES	activity, negative = inhibition	Potency
Cc1ccc(C(=O)N2CCc3cc(CNC(=O)c4ccnn4C)ccc32)cc1	inactive: -1.31%	
CCC[n+]1c(C)sc2c3c(ccc21)CCCC3		active: 50.1 µM
CCCCn1c(N)c(N(CCOC)C(=O)c2cnccn2)c(=O)[nH]c1=O	inactive: 6.66%	
CCN(CC)S(=O)(=O)c1cc(NC(=O)COC(=O)Cn2cnc3ccccc32)ccc1C		inconclusive: 79.4 µM [inhibitor, single point]
COc1c(OC(C)=O)ccc(/C=C/c2ccc3cccc(OC)c3n2)c1[N+](=O)[O-]		inconclusive: 39.8 µM [inhibitor, single point]
COc1ccc2c(C(=O)CN(C)C3CCCCC3)c[nH]c2c1		inconclusive: 39.8 µM [inhibitor, single point]
COc1ccc(NC(=O)C(CC(=O)O)Cc2ccccc2)cc1 (stereo not drawn)		inconclusive: 89.1 µM [inhibitor, single point]
COc1ccc2nc3ccccc3nc2c1	inconclusive: -72.4% [inhibitor]	
Cc1c(Cl)cnc(NC(=O)COC(=O)/C=C/c2ccco2)c1Cl		active: 44.7 µM
Cc1ccc(S(=O)(=O)N/N=C/c2ccc(OS(=O)(=O)c3ccc(C)c([N+](=O)[O-])c3)cc2)cc1		inconclusive: 3.16 µM [inhibitor, single point]
Cn1c(Cc2ccccc2)nnc1SCCC(=O)Nc1ccccc1		active: 7.94 µM
CC1CCN(c2ccc(C(=O)O)cc2N)CC1		active: 79.4 µM
CCCCCCn1c(CN2CCN(Cc3ccccc3)CC2)nc2c1c(=O)n(C)c(=O)n2C		inconclusive: 35.5 µM [inhibitor, single point]
O=C(Nc1ccc([N+](=O)[O-])cc1)Nc1ccc(N2CCOCC2)c2nonc12		inconclusive: 6.31 µM [inhibitor, full curve, poor fit]
CCN(CC)S(=O)(=O)c1ccc(/C=C/C(=O)OCC#N)cc1	inactive: 8.5% [at 102 µM]	
CCOc1ccc2oc(-c3ccccc3)c(C(N)=O)c2c1		inconclusive: 79.4 µM [inhibitor, single point]
Cn1cccc1-c1cc(C(=O)N/N=C/c2cc(Br)ccc2O)[nH]n1	inactive: -0.145%	
COc1cc(C(=O)NCC(=O)N2CCN(S(=O)(=O)c3cc(C)ccc3C)CC2)cc(OC)c1OC	inactive: 27.2% [at 102 µM]	
CCN(c1ccccc1)S(=O)(=O)c1cc(C(=O)NCc2ccccn2)ccc1C	inactive: 26.1% [at 102 µM]	
CCN(C(=O)Cn1cc(C(=O)c2ccc(F)cc2)c(=O)c2ccc(C)nc21)c1cccc(C)c1	inactive: -21.5%	
Cc1ccc(C)c(N2CCN(C(=O)Cn3c(C)c4cnn(-c5ccccc5)c(=O)c4c3C)CC2)c1	inactive: -45.5%	
COc1cc(NC(=O)Cn2c(=O)nc(-c3ccccc3F)c3cc(Cl)ccc32)cc(OC)c1	inactive: -21.9%	
COc1cc(/C=N/NC(=O)Cc2ccccc2)ccc1Oc1ccc([N+](=O)[O-])cc1[N+](=O)[O-]		inconclusive: 2.82 µM [inhibitor, full curve, poor fit]

SMILES	activity, negative = inhibition	Potency
COc1ccc(OC)c(NC(=O)CCc2c(C)nc3c(c(C)nn3C(C)(C)C)c2C)c1	inactive: -3.34%	
O=C(NNC(=O)c1ccncc1)Nc1ccc([N+](=O)[O-])cc1		inconclusive: 56.2 µM [inhibitor, partial curve]
CN(C(=O)c1cccc(C#N)c1)c1nnc(-c2ccncc2)s1		inconclusive: 79.4 µM [inhibitor, partial curve, poor fit]
O=C(c1ccc(O)cc1)c1ccc(C(=O)O)c(C(=O)O)c1		inconclusive: 7.94 µM [inhibitor, partial curve, poor fit]
Cc1cc(C)c2c(CC(=O)Nc3c(C(=O)c4ccc(F)cc4)oc4ccccc34)coc2c1	inactive: 5.66%	
CCOC(=O)C(C)(C)C(=O)C(C)(C)C(O)c1ccccn1 (stereo not drawn)		inconclusive: 15.8 µM [inhibitor, single point]
CCOC(=O)C1=C(CC)OC(N)=C(C#N)C1c1ccc(OC)c(OC)c1OC (stereo not drawn)		inconclusive: 17.8 µM [inhibitor, partial curve, poor fit]
COc1cccc(-n2c(-c3ccc(C)cc3)cc3c2CC(C)(C)CC3=O)c1		inconclusive: 2.24 µM [inhibitor, full curve]
COc1ccc(N2CCN(CCNC(=O)C3CCN(S(=O)(=O)c4cccs4)CC3)CC2)cc1		inconclusive: 50.1 µM [inhibitor, partial curve, poor fit]
CCOCCCn1c(=S)[nH]c2cc(C(=O)N3CCC(C(N)=O)(N4CCCCC4)CC3)ccc2c1=O		inconclusive: 8.91 µM [inhibitor, single point]
O=C(c1ccc(SCc2cccc(Br)c2)c([N+](=O)[O-])c1)N1CCN(c2ccccn2)CC1		inconclusive: 14.1 µM [inhibitor, partial curve]
COc1ccc(CCN(C)Cc2nc(Cc3ccc(OC)c(OC)c3)no2)cc1OC		inconclusive: 7.08 µM [inhibitor, single point]
CC(C)OC(=O)CSc1nnc(-c2ccc(Cl)cc2)n1N		inconclusive: 79.4 µM [inhibitor, single point]
O=C(NCC1CCN(Cc2ccccc2Cl)CC1)c1cc2ccc3cccnc3c2[nH]1		inconclusive: 20 µM [inhibitor, partial curve, poor fit]
COc1cccc2c(C)c(C(=O)O)[nH]c12		inconclusive: 35.5 µM [inhibitor, single point]
CCc1ccc(NC(=O)c2ccc3c(O)c(S(=O)(=O)c4ccccc4)c(=O)[nH]c3c2)cc1	inactive: -16.3%	
CCOC(=O)C1=C(C)NC(=O)NC1c1ccc(-c2ccc(F)cc2)o1 (stereo not drawn)		inconclusive: 39.8 µM [inhibitor, partial curve, poor fit]
O=C(Nc1nnc(SCCN2CCOCC2)s1)C1CC(=O)N(c2ccc(F)cc2)C1 (stereo not drawn)		active: 44.7 µM
CCn1c2c(c(=O)n3ncc(C(=O)Nc4ccc(F)cc4Cl)c13)CN(Cc1ccc(OC)cc1)CC2		inconclusive: 28.2 µM [inhibitor, single point]
CCOC(=O)N/N=C/c1ccc(F)cc1F	inactive: -4.95%	
CCOc1ccccc1OCCN1CCC(Cc2ccccc2)CC1		active: 15.8 µM
COCCN(C(=O)COC(=O)Cc1coc2cc(C)ccc12)c1c(N)n(Cc2ccccc2)c(=O)[nH]c1=O		inconclusive: 50.1 µM [inhibitor, partial curve]
